Assay results from PubChem BioAssay AID1508623 (National Center for Advancing Translational Sciences (NCATS), 2021).
Hit rate of the full screen: of about 48,000 compounds, about 450 (0.94%) were called active. About 19% were inconclusive and are not listed. Calls follow the shape of the dose curve; as a rule, active = well fitted inhibition curve with a large enough effect; inconclusive = small, poorly fitted or top-dose-only effect; inactive = no such curve, though single readings can be large or run the other way. This is one part of the list.

Experiment: Primary qHTS for Identification of Small Molecule Inhibitors of Huntingtin Promoter Activity; also: nearly all actives have a fitted effect of over 50% in size
Settings: HEK293 HTT promoter firefly luciferase reporter (activity 0% = vehicle and -100% = no light), 24 h; series mostly up to 57.5 µM; activity change, negative = inhibition: at the top concentration
Summary of the method: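 Firefly luciferase readout (Dual-Glo, 10 min RT) after 24 h, 37 °C compound exposure (final up to 57.5 uM) of HEK293 reporter cells cultured 24 h beforehand; PTC124 at 50 uM final as control inhibitor; activity scaled vehicle 0%, zero RLU -100%.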

Activity change, negative = inhibition, inactive:
Cc1ccc(OCCSc2nc3ccccc3n2CCC(=O)O)cc1 1.68%, CN(Cc1ccccc1)c1nc2c(S(=O)(=O)c3ccccc3)nnn2c2ccsc12 -6.89%, Cc1c(C(=O)Nc2ccccc2F)sc2nc3n(c(=O)c12)CCC3 79.5%, Cc1ccc(NC(=O)Cn2c(=O)n(CC(=O)NCCc3ccccc3)c(=O)c3ccccc32)cc1 -2.84%, CC1CCc2nc3ncn(Cc4cccc(F)c4)c(=O)c3cc2C1 (stereo not drawn) 23.5%, COc1ccc(CNC(=O)CCc2c(C)nc3c4cccnc4nn3c2C)cc1 -13.5%, COc1ccc(CC(=O)Nc2nnc3n2CCS3)cc1OC -18.9%, COc1ccc(C)cc1-n1c(SCC(=O)NCc2ccco2)nc2c([nH]c3ccccc32)c1=O -16.6%, CCCCN(CC)CCCNC(=O)c1nn(-c2ccc(OC)cc2)c(=O)c2c1c1ccccc1n2C -4.72%, CNC(=O)C1CCC(Cn2c(=O)c3sccc3n(CC(=O)Nc3ccccc3)c2=O)CC1 (stereo not drawn) -71.7%, Cc1ccc(CCNC(=O)CCCn2c(=O)c3cccn3c3ccc(F)cc32)cc1 -12.3%, CCCCN(CC)CCCNC(=O)c1sc2nc3n(c(=O)c2c1C)CCCCC3 8.64%, COCCNC(=O)c1cc(-c2cccc(Cl)c2)on1 56.8%, COc1cc2[nH]c(=O)n(CCCC(=O)N(C)Cc3ccccc3)c(=O)c2cc1OC -14.5%, CCOC(=O)c1ccc(N2C(=O)c3n[nH]c(C)c3C2c2ccc(CC)cc2)cc1 (stereo not drawn) -24.7%, COC(=O)c1cc2occc2n1Cc1nc(-c2ccc(Cl)cc2)oc1C -7.72%, CCc1ccc(S(=O)(=O)c2cn(C)c3ccc(C)cc3c2=O)cc1 -22.3%, CCOCCCNC(=O)CN1C(=O)CCn2nc(-c3cccn3C)cc21 -19.9%, COc1ccc(CN(CCN(C)C)c2ncccn2)cc1 2.72%, Cc1cccn2c(=O)cc(COc3cccc(NC(=O)Nc4cccc(Cl)c4)c3)nc12 8.5%, CC(C)c1ccc(NC(=O)[C@H]2O[C@@H]3OC(C)(C)O[C@@H]3[C@H]3OC(C)(C)O[C@H]32)cc1 9.93%, Cc1nn(CC(=O)N2CCN(c3ccccc3F)CC2)c(=O)c2cccn12 -7.47%, CCN(CC)c1ccc2nc3c(=O)n(C)c(=O)n(C)c3nc2c1 21.2%, COc1cc(C=CC(=O)O)ccc1O -4.46%, CCn1nc(C)c(CCN(C)C(=O)Nc2cc(Cl)c(OC)cc2OC)c1C 5.3%, CC(C)c1nn2c(=O)cc(COC(=O)c3cccc(NC(=O)CCc4ccccc4)c3)nc2s1 33.4%, CCN(Cc1ccccc1)C(=O)Cn1c(=O)cc(C)c2c(C)nn(-c3cccc(F)c3)c21 -26.1%, CCOc1ccc(-c2nnc(SCC(=O)NC3CCCCC3)nc2-c2ccc(OCC)c(OC)c2)cc1OC -9.94%, COc1ccc(CNC(=O)CCn2c(=O)c3cccn3c3ccc(F)cc32)cc1OC -3.18%, CCN1C(=O)c2ccccc2S(=O)(=O)c2ccc(C(=O)NCc3ccc(C)cc3)cc21 -13.1%, CCc1ccc2occ(CC(=O)Nc3nnc(SC)s3)c2c1 -15%, CCS(=O)(=O)c1nc(S(=O)(=O)c2ccc(Cl)cc2)c(NCc2ccc(Cl)cc2)s1 -25.2%, COc1ccc(-c2ccc(=O)n(CC(=O)Nc3ccc(Br)cc3F)n2)cc1 7.26%, Cn1c(=O)c2c(-c3ccccc3)n(-c3cccc(C#N)c3)cc2n(C)c1=O -10.5%, O=C(O)c1ccc(Nc2ncnc3scc(-c4ccccc4)c23)cc1 -15.9%, CCC(C(=O)NCc1ccccc1Cl)n1c(=O)c2cccn2c2ccccc21 (stereo not drawn) -12.8%, Cc1cc2c(OCC(CNC(C)(C)C)OC(=O)c3ccccc3)cccc2[nH]1 (stereo not drawn) -7.79%, COC(=O)c1cc(OC)c(OC)cc1NC(=O)c1ccc2c(c1)CCN2S(C)(=O)=O -11.1%, O=C(NCc1ccccc1)c1c2c(nc3ccccc13)C(=O)N(C1CCCCC1)C2 -13.2%, O=C(Nc1cccc(-c2nc3ccccc3o2)c1)c1cccc(Br)c1 -18.9%, CCOC(=O)c1c(Nc2cc(C)cc(C)c2)nnc(-c2ccccc2)c1-c1ccccc1 -27.3%, O=C(NCC(c1cccnc1)N1CCc2ccccc2C1)C(=O)Nc1ccccc1 (stereo not drawn) -14.1%, COc1ccccc1N1CCN(S(=O)(=O)c2c(C)nc3sc(C)c(C)n3c2=O)CC1 -11%, CC(=O)CC(c1ccc([N+](=O)[O-])cc1)c1c(O)c2ccccc2oc1=O (stereo not drawn) -5.17%, Cn1nc(-c2ccc(C(=O)Nc3cccc(C(F)(F)F)c3)cc2)c2ccccc2c1=O -0.256%, CCCCCCCCNC(C)C(O)c1ccc(SC(C)C)cc1 (stereo not drawn) 1.9%, O=C(Nc1ccc(F)cc1F)c1cnn(-c2ccc(F)cc2)c1-n1cccc1 -30.5%, CCOc1ccccc1NC(=O)CN1c2ccccc2S(=O)(=O)c2ccccc21 -16.8%, Cc1ccc(CNC(=O)c2cc(S(=O)(=O)N3CCCCCC3)cn2C)cc1 -21.2%, COc1ccc(CNS(=O)(=O)c2cnc(N)nc2)cc1 -4.61%, Cc1cccc(CNC(=O)c2ccc3c(c2)N(C)C(=O)C2CCCCN32)c1 (stereo not drawn) -1.55%, Cc1nn(C)c(C)c1S(=O)(=O)N(CC(=O)N1CCN(c2ccccc2)CC1)c1ccc(C(C)C)cc1 1.58%, CCOc1ccccc1NC(=O)C1CCN(S(=O)(=O)c2ccc3[nH]c4c(c3c2)CCCCC4)CC1 -27.5%, O=C(CCn1c(=O)c2cccn2c2ccccc21)Nc1ccc(F)cc1 -9.25%, CCCCCNC(=O)c1ccc2c(c1)nc(C)n2-c1cccc(C)c1 2.46%, Cc1cc(C)n(-c2nnc(Nc3cc(Cl)ccc3C)c3ccccc23)n1 -22.7%, COc1ccccc1NC(=O)c1cc2c([nH]c1=O)CC(C)(C)CC2=O 11.5%, COc1ccc(NC(=O)c2sc3nc4c(cc3c2N)CCCCCC4)cc1OC -30.8%, Fc1ccc(Cc2cn3cc(-c4ccc(Cl)cc4)nc3s2)cc1 19.7%, CCC1CCCCN1CCCNC(=O)c1cc2c(=O)n(CC)c3ccccc3c2s1 (stereo not drawn) -1.05%, COc1ccc(CNC(=O)C2CCN(S(=O)(=O)c3ccc(C)cc3)CC2)cc1 -21.7%, CCN1CCN(C(c2ccccc2)c2c(O)cc(C)n(Cc3ccco3)c2=O)CC1 (stereo not drawn) -12.3%, N#C/C(=C/c1ccc(Cl)cc1Cl)c1nc2ccccc2c(=O)[nH]1 -9.08%, COC(=O)c1c(N)n(-c2ccc(OC)c(Cl)c2)c2nc3ccccc3nc12 -2.75%, COc1ccc(-c2nnc3c4ccccc4c(-c4ccccc4)nn23)cc1 -4.27%, O=C(Nc1ccccc1F)c1ccc(-c2ccccc2)s1 14.9%, CCN(CC)C(=O)c1sc2c(c1C)c(=O)n(-c1ccc(Cl)c(Cl)c1)c(=O)n2CC(=O)Nc1cccc(OC)c1 0%, O=C(Nc1ccc(F)cc1Cl)C1Cc2ccccc2N1C(=O)c1ccccc1 (stereo not drawn) -2.75%, O=C(CCn1nc(-c2ccc(Cl)cc2)c2ccccc2c1=O)Nc1ccc(OC(F)(F)F)cc1 -16.7%, CC(=O)c1cccc(NC(=O)c2nc3ccccc3nc2N2CCCCC2)c1 -21.4%, COc1ccc(OC)c(CNC(=O)C2CCN(c3ncnc4c3nc3n4CCCCC3)CC2)c1 -3.95%, CN1C(=O)C2(c3ccccc31)N(c1ccc(F)c(Cl)c1)C(=O)CS2(=O)=O (stereo not drawn) -9.49%, COC(=O)c1cc(S(=O)(=O)NCC2CCN(Cc3ccccc3F)CC2)c[nH]1 -20.2%, Cc1cc(C)c2c(n1)nn1c(C)c(CCC(=O)NCc3ccc(Cl)cc3)c(C)nc21 4.8%, O=C(Nc1cc(F)ccc1F)c1cc2nc(-c3ccco3)cc(C(F)(F)Cl)n2n1 -2.08%, CCC(=O)N1CCc2cc(S(=O)(=O)CCC(=O)N3CCN(c4ccc(C(C)=O)cc4)CC3)ccc21 -20.3%, CCOc1ccc(-c2cn3c(n2)sc2cc(C(=O)NCCc4ccc(OC)c(OC)c4)ccc23)cc1 -1.87%, Cc1ccc(C2=NN(CC(=O)NCCc3ccc(Cl)cc3)C(=O)CC2)cc1 -19%, COc1ccc(CCNC(=O)CCn2c(=O)c3cccn3c3cccnc32)c(OC)c1OC -3.7%, Cc1cccc(NC(=O)N2CCC(n3c(C)nc4cccnc43)CC2)c1 16%, O=C(CSc1nccn1Cc1ccccc1)Nc1ccc2c(c1)OCO2 2.91%, CCOc1cc(C(=O)NCCc2csc(-c3ccc(C)cc3)n2)cc(OCC)c1OCC -13.5%, CN(C(=O)c1cc2c(=O)n3ccccc3nc2n1C)c1ccccc1 83.4%, CC(=O)Nc1nnc(SCc2cc(=O)c3cccc(Cl)c3[nH]2)s1 -6.57%, CCOc1ccc(CCNC(=O)Cn2nnc(-c3ccc(C(F)(F)F)cc3)n2)cc1OCC -0.523%, Cn1cc(CCCC(=O)NCc2ccccc2Cl)c2ccccc21 1.88%, CCOC(=O)c1c(NC(=O)CSc2nc(-c3ccccc3)cc(C(F)(F)F)n2)sc(C)c1C -23.2% [at 11.5 µM], CCOc1ccc(OCC)c(Nc2cc(C)nc3nc(-c4ccco4)nn23)c1 -3.8%, CC(=O)N1c2ccc(S(=O)(=O)N3CCCCCC3)cc2CC1C(=O)NCc1ccccc1F (stereo not drawn) -24.2%, O=C(c1ccc([N+](=O)[O-])cc1)N1CCN(c2ccc(Nc3ccccc3)nn2)CC1 -24.6%, CCOc1ccc(CCNC(=O)CN2C(=O)c3cccnc3Oc3ccc(Cl)cc32)cc1 -6.44%, Cc1ccc(CNc2ccc(-c3nc(-c4ccccn4)no3)cc2[N+](=O)[O-])cc1 29.3%, CCCCN(CCCC)CCNC(=O)c1cn(C)c2ccc(S(=O)(=O)N3CCCC3)cc2c1=O -1.69%, COc1ccc(OC)c(NC(=O)N2c3ccccc3Sc3ccccc32)c1 -35.6%, Cc1ccc(OCc2nc(-c3ccc(C(=O)N4CCN(c5ccccc5)CC4)cc3)oc2C)cc1 56.7% [at 11.5 µM], O=C(NCc1ccccc1Cl)c1ccc(Nc2nc3ccccc3n3nnnc23)cc1 20%, Cc1nn(CCC(=O)N2CCN(c3ccccc3)CC2)c(C)c1S(=O)(=O)N1CCCC1 -26.7%, CCc1cnc2c(c1SCC(=O)N1CCC(C)CC1)c(=O)n(C)c(=O)n2C -20.3%
